Results from PubChem BioAssay AID360 (National Center for Advancing Translational Sciences (NCATS), 2006).
Among all 48,000 compounds or so, about 550 (1.1%) were called active. Inconclusive results (about 4%) are left out. Rule as the data show it: active = potency below about 15 µM; inconclusive = mostly about 16 µM to 33 µM; inactive = weaker than that. The list shows a part of the results.

Biological target: Lysosomal acid glucosylceramidase (Homo sapiens) (UniProt P04062)
Assay: Glucocerebrosidase;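 also: the screen sought inhibitors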
Conditions: purified enzyme, resorufin glucoside fluorescence (screen aimed at inhibitors), 20 min
Method in brief: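 Normal human glucocerebrosidase (0.2 nM final) was assayed with resorufin β-D-glucopyranoside (30 uM final) in 50mM citric acid/KH2PO4, 10mM sodium taurocholate, 0.01% tween-20, pH 5.9. Compounds were titrated; fluorescence (Ex 548, Em 600) read after 20 min at RT.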
Potency is read from the fitted curve at half-maximal effect.

Chain of UniProt P04062 (P04062 whole entry, looked up): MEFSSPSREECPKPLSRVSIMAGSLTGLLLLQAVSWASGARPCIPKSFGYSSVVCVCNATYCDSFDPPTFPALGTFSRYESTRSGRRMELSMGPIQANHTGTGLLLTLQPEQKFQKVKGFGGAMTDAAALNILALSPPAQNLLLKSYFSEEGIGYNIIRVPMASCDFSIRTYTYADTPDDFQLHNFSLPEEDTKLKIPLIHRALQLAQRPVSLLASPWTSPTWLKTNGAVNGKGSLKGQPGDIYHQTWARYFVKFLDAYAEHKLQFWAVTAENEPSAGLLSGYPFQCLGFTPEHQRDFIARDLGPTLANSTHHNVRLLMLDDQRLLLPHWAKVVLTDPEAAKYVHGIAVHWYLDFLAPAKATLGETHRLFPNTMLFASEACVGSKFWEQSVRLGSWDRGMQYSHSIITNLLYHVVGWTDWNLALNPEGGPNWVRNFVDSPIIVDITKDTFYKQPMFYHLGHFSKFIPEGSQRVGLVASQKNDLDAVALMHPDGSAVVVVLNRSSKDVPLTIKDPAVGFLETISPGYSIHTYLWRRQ

Potency, inactive:
CCCCOc1ccc(C(=O)N2CCCCCC2)cc1 > 76.9 µM, CC(=O)Nc1ccc(NC(=O)Cn2cnc3c(cnn3C(C)(C)C)c2=O)cc1 > 76.9 µM, COc1ccc(OC)c(NC(=O)C(CC(=O)O)NCc2ccco2)c1 (centres undefined) > 76.9 µM, C=C(C)Cn1c(CCNC(=O)C(C)C)nc2ccccc21 > 76.9 µM, CN1CCN(C(=O)Nc2cccc3ccccc23)CC1 > 76.9 µM, N#CC1=C(N)Oc2nc(-c3ccccc3)[nH]c2C1c1cccnc1 (centres undefined) > 76.9 µM, CCOC(=O)N1CCN(C(=O)CSc2nnc(-c3cc(OC)ccc3OC)o2)CC1 > 76.9 µM, Cc1ccc(NS(=O)(=O)c2cc(C(=O)N3CCOCC3)ccc2C)cc1 > 76.9 µM, O=C(CSc1nnc(-c2cccs2)n1-c1ccccc1)c1ccc2c(c1)OCCO2 > 76.9 µM, CCOc1ccc(Cc2nnc(SCC(=O)c3ccc(OC)cc3)o2)cc1 > 76.9 µM, CCc1nc2ccccc2n(CC)c1=O > 76.9 µM, Cc1ccccc1N1C(=O)[C@@H]2Cc3ccccc3CN2C1=O > 76.9 µM, Cc1oc(-c2ccccc2)[n+]([O-])c1C > 76.9 µM, COCCn1cc(C(=O)N2CCCC(C)C2)c2c3ccccc3n(C)c2c1=O (centres undefined) > 76.9 µM, CC(C(=O)Nc1ccc(C(=O)O)cc1)N1C(=O)c2ccccc2C1=O (centres undefined) > 76.9 µM, Cc1cc(NC(=O)CCC(=O)N(Cc2cccs2)C(C(=O)NC2CCCC2)c2ccncc2)no1 (centres undefined) > 76.9 µM, COc1cc(OC)c(-c2nn3c(-c4cccnc4)nnc3s2)cc1OC > 76.9 µM, CCOC(=O)N1CCC(NC(=O)CCc2c(C)nc3c(c(C)nn3C(C)(C)C)c2C)CC1 > 76.9 µM, Cc1c(NC(=O)CCc2ccc(S(=O)(=O)N3CCOCC3)cc2)c(=O)n(-c2ccccc2)n1C > 76.9 µM, Cc1noc(C)c1C(=O)Nc1ccccc1-c1ccccc1 > 76.9 µM, O=C(c1cccs1)N(CC1CCCO1)c1nc(-c2ccccc2)cs1 (centres undefined) > 76.9 µM, COc1cccc(C2C=C(c3ccc(OC)cc3OC)Nc3nnnn32)c1 (centres undefined) > 76.9 µM, CCOc1ccc(-c2cc(C(=O)N3CCN(C)CC3)c3ccccc3n2)cc1 > 76.9 µM, Cc1ccccc1OCC(O)Cn1c(NCc2ccco2)nc2c1c(=O)[nH]c(=O)n2C (centres undefined) > 76.9 µM
